The test has as its system influenza virus A/PR-8. The following applies: 24 h and 3 h before infection and 5 times every other day from second day after, 21 days after challenge, untreated control 10%.

Here are results for three compounds from patent publication US4265910A (priority 1979, dated 1981).

Structures can show the parent of a compound that is named as a salt. Where two headings read alike, the source gives them in different places.

`CC(C)=CCCC(C)=CCCC(C)=CCCC(C)=CCCC(C)=CCCC(C)=CCCC(C)=CCCC(C)=CCCC(C)=CCCC(C)=CCCC(C)=CCN` [Undecaprenylamine hydrochloride]: the Survival rate (40 mg/kg i.p.) was 30%.

Regarding `CC(C)=CCCC(C)=CCCC(C)=CCCC(C)=CCCC(C)=CCCC(C)=CCCC(C)=CCCC(C)=CCCC(C)=CCCC(C)=CCN` [Decaprenylamine hydrochloride], the Survival rate (40 mg/kg i.p.) is 70%. Under “20 mg/kg i.p.”, `CC(C)=CCCC(C)=CCCC(C)=CCCC(C)=CCCC(C)=CCCC(C)=CCCC(C)=CCCC(C)=CCCC(C)=CCN` [Solanesylamine hydrochloride, solanesylamine hydrochloride] came in with a Survival rate of 60%.
